{"source": "PubChem BioAssay AID1259400", "about": "(National Center for Advancing Translational Sciences (NCATS), 2018)", "note": "The campaign covered roughly 350,000 compounds. About 2,100 (0.6%) were called active. Inconclusive results, whose numbers are uncertain, are shown with a selection of clear calls.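 Rule for the calls: active = activity change of -60% or lower, but not beyond a set lower limit; inconclusive = change between -60% and -40%, or beyond the set limit; inactive = change above -40%.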"}
{"target": "Relaxin receptor 1 (Homo sapiens) (UniProt Q9HBX9)", "sequence (Q9HBX9 whole entry, looked up)": "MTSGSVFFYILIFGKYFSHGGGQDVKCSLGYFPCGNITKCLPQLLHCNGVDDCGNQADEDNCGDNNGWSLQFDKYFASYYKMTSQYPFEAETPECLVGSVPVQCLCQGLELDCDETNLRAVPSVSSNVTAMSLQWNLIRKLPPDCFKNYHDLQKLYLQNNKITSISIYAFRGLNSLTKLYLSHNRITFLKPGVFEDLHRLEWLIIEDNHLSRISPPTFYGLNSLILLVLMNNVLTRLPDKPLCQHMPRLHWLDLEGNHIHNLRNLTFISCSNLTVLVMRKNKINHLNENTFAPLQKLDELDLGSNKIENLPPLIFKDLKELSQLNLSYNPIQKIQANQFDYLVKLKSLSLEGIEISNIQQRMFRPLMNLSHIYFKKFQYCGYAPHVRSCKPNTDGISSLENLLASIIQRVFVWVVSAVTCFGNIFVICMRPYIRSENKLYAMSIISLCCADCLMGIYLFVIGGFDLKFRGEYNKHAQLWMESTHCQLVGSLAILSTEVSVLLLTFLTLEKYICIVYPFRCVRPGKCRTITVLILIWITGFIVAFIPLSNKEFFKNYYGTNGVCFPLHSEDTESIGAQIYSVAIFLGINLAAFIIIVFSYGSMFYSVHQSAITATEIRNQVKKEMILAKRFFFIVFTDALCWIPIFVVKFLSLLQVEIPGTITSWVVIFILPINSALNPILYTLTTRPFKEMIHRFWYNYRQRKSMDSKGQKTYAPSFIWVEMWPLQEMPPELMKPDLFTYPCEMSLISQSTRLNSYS", "test": "qHTS Assay for Antagonists of the Relaxin Receptor RXFP1; note: % is set by controls: 0 for no effect and ±100 for the full control effect", "conditions": "HEK293-RXFP1, relaxin-stimulated cAMP HTRF, 30 min; at 57.5 µM; hits give low values"}
{"compound": "O=C(Nc1ccc(Cl)cc1F)C1CC(=O)N(Cc2ccco2)C1", "note": "(centres undefined)", "activity change, negative = inhibition": "inconclusive: -51.7%"}
{"compound": "Cc1ccc(C(=O)Nc2nc(-c3ccc4c(c3)OCCO4)cs2)o1", "activity change, negative = inhibition": "inconclusive: -44.7%"}
{"compound": "O=C(/C=C/Nc1ccccc1F)c1cccs1", "activity change, negative = inhibition": "inactive: -1.03%"}
{"compound": "COc1cc(/C=C2/C(=N)N3OC(C)=CC3=NC2=O)ccc1OC(=O)c1ccco1", "activity change, negative = inhibition": "active: -74.7%"}
{"compound": "C/C(CC(=O)Nc1ccc2c(c1)OCCO2)=N\\NC(=O)COc1ccc(C)cc1", "activity change, negative = inhibition": "active: -76.6%"}
{"compound": "O=C(Nc1ccccc1N1CCCCC1)c1ccc([N+](=O)[O-])o1", "activity change, negative = inhibition": "inactive: -12%"}
{"compound": "COc1ccc(Nc2nc(C)c(-c3ccccc3)s2)cc1", "activity change, negative = inhibition": "inconclusive: -44.5%"}
{"compound": "Cc1ccc(C)c(N2CCN(S(=O)(=O)c3ccc4c(c3)CCCN4C(=O)C3CCC3)CC2)c1", "activity change, negative = inhibition": "inconclusive: -59.9%"}
{"compound": "CC1=NN2C(=N)/C(=C\\c3cc(C)n(-c4ccc(C)cc4)c3C)C(=O)N=C2S1", "activity change, negative = inhibition": "inactive: -5.88%"}
{"compound": "O=C(Nc1ccc2nc(SCC(=O)N3CCCC3)sc2c1)c1cccc(F)c1", "activity change, negative = inhibition": "active: -101%"}
{"compound": "COc1ccccc1NC(=O)COC(=O)CC(C)(C)CC1=NS(=O)(=O)c2ccccc2N1", "activity change, negative = inhibition": "active: -83%"}
{"compound": "Cc1c([N+](=O)[O-])cc(N2C(=O)C=CC2=O)cc1[N+](=O)[O-]", "activity change, negative = inhibition": "inconclusive: -49.1%"}
{"compound": "CCOc1ccc2nc(NC(=O)c3ccccn3)sc2c1", "activity change, negative = inhibition": "inconclusive: -46.1%"}
{"compound": "O=C(O)c1ccc(N=Nc2c(O)[nH]c3ccccc23)cc1", "activity change, negative = inhibition": "inactive: -1.14%"}
{"compound": "CCC(C)(C)n1nnnc1C(c1ccc2ncccc2c1)N1CCN(c2ccc(O)cc2)CC1", "note": "(centres undefined)", "activity change, negative = inhibition": "inactive: -12.5%"}
{"compound": "CC(C)c1nc(CNC(=O)CC2C(=O)NCCN2Cc2ccoc2)cs1", "note": "(centres undefined)", "activity change, negative = inhibition": "inconclusive: -41.9%"}
{"compound": "COC(=O)c1ccc(CSc2nc3ccncc3n2Cc2ccc(F)cc2)cc1", "activity change, negative = inhibition": "inactive: -15.8%"}
{"compound": "Cn1c(N=Nc2ccc(N3CCOCC3)cc2)[n+](C)c2ccccc21", "activity change, negative = inhibition": "active: -107%"}
{"compound": "Cc1ccccc1-c1cc(C(=O)Nc2sc(C(=O)OC(C)C)c(C)c2C#N)c2ccccc2n1", "activity change, negative = inhibition": "active: -64.7%"}
{"compound": "c1ccc(CSc2cc3ccccc3[nH]2)cc1", "activity change, negative = inhibition": "inconclusive: -58.7%"}
{"compound": "Cc1ccc(-c2cc(C(=O)Nc3ccc(S(=O)(=O)Nc4nccs4)cc3)c3ccccc3n2)c(C)c1", "activity change, negative = inhibition": "inconclusive: -49.9%"}
{"compound": "C=CCNC(=O)CN(c1cc(Cl)ccc1OC)S(=O)(=O)c1ccc(C)c([N+](=O)[O-])c1", "activity change, negative = inhibition": "inconclusive: -49.2%"}
{"compound": "CCCCCCCCc1nc(SC(C)C(=O)O)n[nH]1", "note": "(centres undefined)", "activity change, negative = inhibition": "inactive: -2.91%"}
{"compound": "O=C(COC(=O)c1ccc(S(=O)(=O)NCc2ccco2)cc1)Nc1ccc(Cl)cn1", "activity change, negative = inhibition": "inconclusive: -43.3%"}
